In all, about 45,000 compounds went through this assay and about 65 (0.1%) were called active. The call rests on the fitted dose curve; in most records, active means well fitted activation curve with a large enough effect; inconclusive means small, poorly fitted or top-dose-only effect; inactive means no such curve, though single readings can be large or run the other way. The list shows a part of the results.
Target: Galactocerebrosidase (Homo sapiens) (UniProt P54803)
Test: A Novel Cell-Based Assay to Identify Small Molecules for B -Galactocerebrosidase; further: 0% is about no effect; nearly all actives have a fitted effect of over 65% in size
Conditions: 145M-Twi-hGALC-G270D cells (Twitcher mouse brain line with human GALC G270D), HMU-beta-Gal fluorescence, 48 h; series mostly up to 57.5 µM; activation: at the top concentration
Outline: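 Brain-derived Twitcher mouse 145M-Twi cells stably expressing human GALC-G270D or wild-type GALC, treated live, then residual GALC activity read by fluorescence of HMU-b-Gal substrate (0.1 mM final) in citrate-phosphate buffer pH 5.2 with sodium taurocholate. Signal increase indicates enhancement.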

UniProt P54803, sequence (P54803 whole entry, looked up): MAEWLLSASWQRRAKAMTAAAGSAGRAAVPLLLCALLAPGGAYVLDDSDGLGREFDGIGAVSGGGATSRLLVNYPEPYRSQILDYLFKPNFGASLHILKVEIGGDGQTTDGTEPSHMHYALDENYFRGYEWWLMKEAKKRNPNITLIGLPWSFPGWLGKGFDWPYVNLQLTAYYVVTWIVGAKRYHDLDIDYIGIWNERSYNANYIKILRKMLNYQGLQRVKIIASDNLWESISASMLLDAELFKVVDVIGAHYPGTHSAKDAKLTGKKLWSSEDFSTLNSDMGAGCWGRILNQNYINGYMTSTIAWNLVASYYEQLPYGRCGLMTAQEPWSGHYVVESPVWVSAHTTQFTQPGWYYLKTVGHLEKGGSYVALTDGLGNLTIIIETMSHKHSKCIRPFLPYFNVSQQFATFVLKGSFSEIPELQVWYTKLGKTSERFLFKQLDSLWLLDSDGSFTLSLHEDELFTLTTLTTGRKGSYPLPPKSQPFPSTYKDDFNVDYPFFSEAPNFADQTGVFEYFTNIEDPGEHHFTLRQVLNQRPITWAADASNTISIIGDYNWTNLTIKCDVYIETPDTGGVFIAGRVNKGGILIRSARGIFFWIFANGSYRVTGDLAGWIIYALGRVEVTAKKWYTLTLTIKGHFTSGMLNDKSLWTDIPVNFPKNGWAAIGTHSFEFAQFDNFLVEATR

activation, inactive:
COc1ccc(CC(=O)NCC(c2cccs2)S(=O)(=O)c2ccc(F)c(C)c2)cc1 (stereo unspecified) -16.7%, Cc1ccc(C)c(S(=O)(=O)c2nnn3c2nc(N2CCN(C)CC2)c2sccc23)c1 8.02%, Cc1cc2oc(=O)c(CC(=O)NCCc3ccccc3F)c(C)c2c2occ(C(C)(C)C)c12 -5.61%, CC(=O)Nc1cc(C(=O)NCc2ccc(F)cc2)ccc1Sc1ccc(F)cc1 -4.79%, CCOC(=O)c1c(NC(=O)c2ccc(OCC)c(Br)c2)sc2c1CCCC2 -5.3%, CCCCN(C(=O)C1CCC(CNS(=O)(=O)c2cccc3nsnc23)CC1)c1ccccc1 (stereo unspecified) -7.01%, COc1ccc(OC)c(NC(=O)C2CCCN(S(=O)(=O)c3ccc4c(c3)CCCC(=O)N4)C2)c1 (stereo unspecified) -25%, COc1ccccc1C(=O)Nc1ccc2nc(SCC(=O)N3CCCc4ccccc43)sc2c1 -12.5%, Cc1cc2n(n1)CCC(=O)N2Cc1ccc(C(=O)Nc2cc(Cl)ccc2C)cc1 5.3%, COc1ccccc1NC(=O)C1=C(C)Nc2nc(SC)nn2C1c1ccccc1Cl (stereo unspecified) -11%, CCOC(=O)c1cc(S(=O)(=O)NCc2ccc(Cl)cc2)[nH]n1 -24.8%, COc1ccccc1C(=O)Nc1nc2n(n1)C(c1ccc(F)cc1)C=C(c1ccc(Cl)cc1)N2 (stereo unspecified) -9.65%, Cc1cccc(CN2CCC(CNC(=O)Cn3ncc4c([nH]c5ccc(C)cc54)c3=O)CC2)c1 4.91%, COc1ccccc1C(=O)N/C(=C\c1cn(S(=O)(=O)N(C)C)c2ccccc12)C(=O)NCCCn1ccnc1 -14.7%, CCc1ccc(CNC(=O)C2CCCN(c3nnc(C)c4c(C)n(-c5ccccc5)nc34)C2)cc1 (stereo unspecified) -15.5%, Cc1ccccc1CSc1ncc(Cl)c(C(=O)Nc2nc3ccc(F)cc3s2)n1 13.1%, CCCCOc1ccc(C(C)NC(=O)CN2C(=O)CSc3ccc(S(=O)(=O)N4CCOCC4)cc32)cc1 (stereo unspecified) -7.55%, CSc1ccc(-c2nnn(CC(=O)Nc3sc4c(c3C#N)CCC(C(C)(C)C)C4)n2)cc1 (stereo unspecified) -12.8%, CCCN(CCC)C(=O)Cn1c(=O)n(-c2cccc(C)c2)c(=O)c2c1c1cc(OC)ccc1n2C -5.47%, COc1cccc(-c2cc(C(F)(F)F)nc(NCCc3ccc(OC)c(OC)c3)n2)c1 3.13%, CCCCN=C(N)N=C(N)N -12.8%, O=S1(=O)c2ccccc2N(Cc2cccc(F)c2)c2ccccc21 -16.7%, COc1ccc(NC(=O)c2ccco2)cc1NC(=O)c1cc(Cl)ccc1OC -0.657%, CCC(=O)Nc1ccc(Cl)c(-c2nc3ccccc3[nH]2)c1 0.826%, COc1ccccc1CN1CCC(CNC(=O)c2cnn(-c3ccccc3Cl)c2C2CCN(C(=O)OC(C)(C)C)CC2)CC1 -12.3%, COc1ccccc1CNC(=O)CCc1c(C)nc2cc(-c3ccc(Cl)cc3)nn2c1C -4.3%, Cc1cccc(NC(=O)c2ccc(-n3c(C)nnc3C)cc2)c1 -23.7%, Cc1ccc(-n2ncc3c(N4CCCCCC4)ncnc32)cc1Cl -15.8%, COc1ccc(-c2[nH]nc3nc(-c4cc(Br)ccc4OC)cc(C(=O)O)c23)cc1 -9.5%, Cc1c(C(=O)OC2CCCCC2)[nH]c2c1C(=O)CC(c1ccc(F)cc1)C2 (stereo unspecified) -28.4%, CC(C)CC(=O)NCC(c1ccc2c(c1)OCO2)N1CCN(c2ccccc2)CC1 (stereo unspecified) -8.64%, O=C(CN1CCCN(Cc2cccc(Cl)c2)S1(=O)=O)Nc1ccc2c(c1)OCCO2 -14.3%, COc1ccc(S(=O)(=O)N2Cc3ccccc3CC2C(=O)Nc2ccc(C)cc2)cc1OC (stereo unspecified) -6.8%, COc1cccc(CNC(=O)C(=O)NCC(c2cccs2)S(=O)(=O)c2ccccc2)c1 (stereo unspecified) 9.38%, COc1ccc(CCNC(=O)CCCn2c(=O)c3ccccc3n(Cc3ccccc3)c2=O)cc1OC 2.71%, COc1c(Cl)cc(Cl)cc1C(=O)Nc1cccc(-c2nc3ccccc3o2)c1C -17.6%, O=S(=O)(c1ccc(F)cc1)N1CCC(Oc2cccc(C(F)(F)F)c2)CC1 -10.1%, CCc1ccccc1NC(=O)c1cn(C)c(=O)c2ccccc12 10.9%, CCn1c(COc2ccc(Cl)cc2Cl)nc2ccccc21 -13.6%, Cc1ccc(C)c(NC(c2ccccc2)c2nnc(-c3ccccc3F)o2)c1 (stereo unspecified) -16.2%, CCOC(=O)CC(NC(=O)Cn1nnc(-c2ccccc2Cl)n1)c1ccc(OC)cc1 (stereo unspecified) -15.5%, COc1ccc(CCN2C(=O)N(c3cccc(C)c3)C(=O)C2CC(=O)Nc2ccccc2)cc1OC (stereo unspecified) -8.35%, Clc1ccc(CCNc2nc3cc(Cl)c(Cl)cc3n3cnnc23)cc1 -4.97%, Cc1cccc(CCNC(=O)c2cc(S(=O)(=O)N3CCCCC3)c[nH]2)c1 -11.4%, C/C=C/c1ccc(OC)cc1 -10.8%, Cc1c2cnn(-c3ccccc3)c(=O)c2c(C)n1C(C)C(=O)Nc1ccccc1C(F)(F)F (stereo unspecified) -3.81%, Cc1cccc(N2CCN(C(=O)c3ccc4c(c3)N(Cc3ccccc3)C(=O)c3ccccc3S4(=O)=O)CC2C)c1 (stereo unspecified) -10.5%, COc1ccccc1CNC(=O)CSc1ncc(S(=O)(=O)c2ccc(C)c(Cl)c2)c(=O)[nH]1 -10.1%, COc1cc(-c2nc(SCC(=O)Nc3ccc4c(c3)OCO4)c(-c3ccccc3)[nH]2)cc(OC)c1OC -12.4%, COc1ccc(-c2nnc(C3CCN(S(=O)(=O)c4cccc(Cl)c4)CC3)o2)cc1 -9.48%, COc1ccc(-c2nnc(SCC(=O)N3CCC(C)CC3)o2)cc1 -12.1%, CCCN(CCC)CCc1cccc2c1CC(=O)N2 2.68%, CNC(=O)C1CCC(Cn2c(=O)c3sccc3n(CC(=O)N3CCCC(C)C3)c2=O)CC1 (stereo unspecified) -12.9%, COCCCNC(=O)C1CCN(Cc2cc3ccccc3n2Cc2cccc(C)c2)CC1 -4.34%, COc1ccc(OCCn2c(NC(=O)c3ccc(OC)cc3)nc3ccccc32)cc1 -18.3%, COc1ccccc1N1CCN(C(=O)C2CCCN(S(=O)(=O)c3ccc4c(c3)CCCN4C(C)=O)C2)CC1 (stereo unspecified) -7.42%, COc1cc(NC(=O)CSc2nc3nc(C)c(Cc4ccccc4Cl)c(C)n3n2)cc(OC)c1 -14.1%, Cc1ccc(Nc2ncnc3sc4c(c23)CCC(C)C4)cc1C (stereo unspecified) -20.2%, CCOC(=O)C1(C)C=C(Nc2cccc(C(=O)O)c2)C(=O)N1c1ccccc1 (stereo unspecified) -13.8%, Cc1ccc(CNC(=O)C(=O)NCC(c2ccc3c(c2)OCO3)N2CCOCC2)cc1 (stereo unspecified) -31.6%, Cc1ccc2c(=O)cc(C(=O)Nc3c(C)n(C)n(-c4ccccc4)c3=O)oc2c1 -9.97%

From PubChem BioAssay AID1159614 (National Center for Advancing Translational Sciences (NCATS), 2016)
